Results published in article PMC4336329 (PLoS ONE, 2015).
Among all 310,000 compounds or so, about 2,200 (0.71%) showed an effect of 50% or more. The effect is printed as a negative number. This is one part of the list.

What follows are molecules tested against human ether-à-go-go-related gene (hERG) potassium channel (human, UniProt Q12809) (assay: primary screen, population patch clamp on CHO cells stably expressing hERG).
Chain of human ether-à-go-go-related gene (hERG) potassium channel (Q12809 whole entry, looked up): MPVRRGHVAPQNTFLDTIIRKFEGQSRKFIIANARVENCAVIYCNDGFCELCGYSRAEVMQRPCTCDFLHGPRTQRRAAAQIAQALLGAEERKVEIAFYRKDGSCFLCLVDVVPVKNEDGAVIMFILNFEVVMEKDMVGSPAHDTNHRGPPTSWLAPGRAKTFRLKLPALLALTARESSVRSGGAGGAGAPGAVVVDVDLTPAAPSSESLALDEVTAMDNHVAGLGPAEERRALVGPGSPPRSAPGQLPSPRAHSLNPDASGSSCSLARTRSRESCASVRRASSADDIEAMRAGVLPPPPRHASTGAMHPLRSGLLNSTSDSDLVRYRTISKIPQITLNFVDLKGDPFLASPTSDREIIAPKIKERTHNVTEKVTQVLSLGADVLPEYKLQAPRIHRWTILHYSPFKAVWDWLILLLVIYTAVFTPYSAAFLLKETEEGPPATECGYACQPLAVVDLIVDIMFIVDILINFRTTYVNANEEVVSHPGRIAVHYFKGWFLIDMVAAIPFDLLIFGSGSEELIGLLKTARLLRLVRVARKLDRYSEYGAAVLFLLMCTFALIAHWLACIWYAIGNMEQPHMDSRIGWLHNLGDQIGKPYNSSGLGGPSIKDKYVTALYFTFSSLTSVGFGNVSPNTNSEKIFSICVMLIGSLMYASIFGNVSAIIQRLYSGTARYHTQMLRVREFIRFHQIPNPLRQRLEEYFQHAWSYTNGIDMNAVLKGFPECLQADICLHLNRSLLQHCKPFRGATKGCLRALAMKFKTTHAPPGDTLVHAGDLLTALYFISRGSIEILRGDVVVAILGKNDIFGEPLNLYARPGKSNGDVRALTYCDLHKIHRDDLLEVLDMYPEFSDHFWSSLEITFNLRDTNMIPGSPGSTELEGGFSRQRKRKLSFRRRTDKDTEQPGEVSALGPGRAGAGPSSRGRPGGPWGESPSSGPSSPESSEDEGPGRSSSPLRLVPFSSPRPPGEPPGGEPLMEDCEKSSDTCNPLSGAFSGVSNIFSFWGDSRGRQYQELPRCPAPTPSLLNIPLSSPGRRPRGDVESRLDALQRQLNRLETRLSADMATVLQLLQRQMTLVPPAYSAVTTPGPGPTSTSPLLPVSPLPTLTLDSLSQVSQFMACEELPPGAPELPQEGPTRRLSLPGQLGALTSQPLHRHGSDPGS

Compound	hERG current change (%, negative = inhibition) at 1uM [%]
CSCC[C@H](NC(=O)N1CCn2c1nc1ccccc12)C(=O)NC1CCCCC1	9.44
O=C(NCCOc1ccccc1)c1cncc(Br)c1	-4.97
Clc1ccc(SCCOCCN2CCCCC2)cc1.O=C(O)C(=O)O	-61.1
CC(=O)c1cc(C#N)c(SCC(=O)OC(C)(C)C)nc1C	8.25
COc1ccccc1C(c1nnnn1CC1CCCO1)N1CCC(C(N)=O)CC1.Cl (stereo not shown)	1.02
N#Cc1ccc(NCC(=O)Nc2ccc(S(=O)(=O)N3CCCCC3)cc2)cc1	9.37
CN1CCN(c2oc(-c3ccccc3Cl)nc2S(=O)(=O)c2ccccc2)CC1	-8.02
COC(=O)c1ccc(C(=O)OC)c(NC(=S)N2CCC(C(N)=O)CC2)c1	12.3
CC(=O)Nc1ccc(NC(=O)C(C)OC(=O)c2cc(S(=O)(=O)N(C)C)ccc2N2CCCC2)cc1 (stereo not shown)	4.78
CCOC(=O)C1CCN(C(=O)COC(=O)COc2ccccc2OC)CC1	8.94
O=C(N/N=C\c1cc2c(cc1Cl)OCO2)c1cccs1	20.5
O=C(Nc1ccccc1C(=O)NC1CC1)c1ccccc1	16.2
Cn1c(SCc2c(Cl)cccc2Cl)nnc1-c1cccs1	-9.39
O=C(NCc1ccco1)C(C(=O)c1ccccc1)n1ccccc1=O (stereo not shown)	14.2
COc1cccc(C(C(=O)NC2CCCCC2)N(C(=O)Cc2cccs2)c2ccc(-n3cnnn3)c(OC)c2)c1 (stereo not shown)	19
CCc1nnc(NS(=O)(=O)c2ccc(Nc3ccc([N+](=O)[O-])c4nonc34)cc2)s1	15.3
CC(C)N(Cc1ccccc1)C(=O)COC(=O)CCC(=O)c1ccc(F)cc1	3.13
Cn1c(=O)c2c(SCC(=O)NCC3CCCO3)nc(CC(C)(C)C)nc2n(C)c1=O (stereo not shown)	-0.562
CCS(=O)(=O)N1CCN=C1SCc1cccc(F)c1	11.7
CCN(CC(=O)Nc1cccc(C(C)=O)c1)S(=O)(=O)c1ccccc1	4.85
c1ccc([C@H]2CC3C[C@@H](c4ccccc4)N2O3)cc1	7.81
Cl.Nc1ccc(Oc2cc(N)cc(Oc3ccccc3)c2)cc1	15.8

Compound	hERG current change (%, negative = inhibition) at 1uM [%]
COc1ccc(NS(=O)(=O)c2ccc(NC(=O)c3ccccc3Br)cc2)nn1	8.74
CCCCC/C=C\C/C=C\C/C=C\C/C=C\CCCC(=O)O	21.2
CCc1cccc(NS(=O)(=O)c2ccc3c(c2)n(C)c(=O)n3C)c1	19.3
COc1ccc(NC(=O)c2ccccc2-c2ccccc2C(=O)O)cc1	5.69
CCOc1ccccc1NC(=O)CSc1nncc2ccccc12	1.9
Cc1nc2ccccc2c(=O)n1/N=C/c1ccccc1Cl	12.2
CC(NC(=O)C1CCCCC1)C(c1cccs1)N1CCN(C)CC1 (stereo not shown)	6.45
CCOC(=O)N1CCN(C(=O)C2c3cc(OC)c(OC)cc3C(=O)N3CCc4ccccc4C23)CC1 (stereo not shown)	13.9
COc1cccc(N2CC(C(=O)Nc3nnc(SCC(=O)c4ccccc4)s3)CC2=O)c1 (stereo not shown)	7.45
O=C(NCN1CCc2ccccc2C1)c1ccccc1	-4
Cc1ccc2nc(SCC(=O)NCc3ccccc3)nc(=O)n2c1	-1.55
COc1ccc(N(C(=O)c2snc(C(N)=O)c2N)C(C(=O)NC2CCCC2)c2ccc(F)cc2)c(OC)c1 (stereo not shown)	4.5
COc1ccc(CNC(=O)C2CC(c3ccccc3C(F)(F)F)=NO2)cc1 (stereo not shown)	1.74
CCOC(=O)CC(NC(C)=O)c1ccc([N+](=O)[O-])cc1 (stereo not shown)	8.5
COc1ccc(OC)c(NC(=O)C2CCCN(S(=O)(=O)c3c(C)nn(C)c3C)C2)c1 (stereo not shown)	15.9
CCOc1ccc(NC(=O)CN(C)C(=O)C2CC(=O)N(c3ccc4c(c3)OCCO4)C2)cc1OCC (stereo not shown)	-4.28
Cc1c(O)ccc(NC(=O)/C=C/c2ccccc2)c1C	10.9
O=C1C2Sc3[nH]c(=O)sc3C(c3ccccc3)C2C(=O)N1c1ccc(Cl)cc1 (stereo not shown)	10.4
Cc1cc(C)nc(Sc2ccc(C=O)cc2[N+](=O)[O-])n1	11.8
CN(C)C(=O)N1CCN(C(=O)c2ccco2)CC1	4.67
CCCCCCCC(=O)N/N=C/c1ccc([N+](=O)[O-])o1	5.65
COc1ccc(C)cc1NC(=O)CSc1nc(SC)ns1	17.8

Compound	hERG current change (%, negative = inhibition) at 1uM [%]
CCC(C)NC(=O)C1CCN(S(=O)(=O)c2cc([N+](=O)[O-])ccc2Cl)CC1 (stereo not shown)	12.9
CSc1nc2sc3c(c2c(=O)n1CC(C)C)CC(C)(C)OC3	14.4
CN(C)c1nc(N(C)C)nc(N(C#N)CN2C(=O)c3ccccc3S2(=O)=O)n1	2.13
CS(=O)(=O)Cc1ccc(C(=O)N(CCc2ccccc2)Cc2ccccc2)cc1	0.11
Cc1ccc(SCC(=O)NC(=O)Nc2ccc3c(c2)OCCO3)cc1C	-2.83
COc1ccc(Oc2ncnc3sccc23)cc1	11.3
Cc1ccccc1Sc1ncccc1[N+](=O)[O-]	7.38
CCN(CC)c1nc(C(N)=O)cc(-c2ccccc2)n1	13.4
O=C1C=CC(=O)N1	14.7
CCCCNC(=O)c1cc(-c2ccc(OC)c(OC)c2)on1	5.84
COC(=O)CSC1=C(C#N)C(=O)NC2(CCCCC2)S1	15.7
O=C(CSc1nnc(-c2ccc(Cl)cc2)o1)N1CCOCC1	7.55
O=C(c1ccc(NS(=O)(=O)c2ccc(F)cc2)cc1)N1CCCCC1	13.1
O=[N+]([O-])c1cc2c(c(CSc3nnnn3-c3ccc(O)cc3)c1)OCOC2	1.25
CN(CC(=O)NCc1ccc(F)cc1)Cc1cccc(Cl)c1	15.7
CCOC(=O)c1ccccc1Nc1cc(C)nc2nc(C)nn12	2.17
CC(C)[C@@H](C(=O)N1CCCC1)N1C(=O)N2CCc3c([nH]c4ccccc34)[C@@]2(C)C1=O	5.78
CC(C#N)(NC(=O)CN1CCN(S(=O)(=O)c2ccccc2Cl)CC1)C1CC1 (stereo not shown)	13.2
CCOC(=O)c1c(NC(=O)COC(=O)c2ncc(Cl)c(Cl)c2Cl)sc(C(=O)N(C)C)c1C	10.5
COc1ccc(S(=O)(=O)Cc2ccc(C(=O)NCCc3cc(OC)ccc3OC)o2)cc1	6.85
c1ccc(Oc2cc(-c3ccccc3)nc(-c3ccccc3)n2)cc1	-0.445
Cc1ccc(Cn2ccc(NC(=O)c3noc4c3CCCCC4)n2)cc1	9.2

Compound	hERG current change (%, negative = inhibition) at 1uM [%]
CC(C)Sc1nc2ncnc(N)c2[nH]1	19.9
CCOC(=O)c1ccccc1NC(=O)c1ccc2c(=O)n3c(nc2c1)CCCCC3	-1.04
CCn1c(Cc2ccccc2)nnc1SCC(=O)Nc1ccc(N)cc1	11
N#C/C(=C(/O)CN1CCCC1)c1nc(-c2ccccc2)cs1	7.19
COc1ccc([C@H]2CC(=O)c3c(O)cc(O)cc3O2)cc1O	13.8
Cc1noc(C)c1COc1ccc(C(=O)OCC(=O)Nc2ccc3c(c2)OCO3)cc1	9.19
Cc1ccc(C(=O)O/N=C(\N)c2cccnc2)cc1[N+](=O)[O-]	3.56
COc1ccc(Cl)cc1N1CC(c2nc3ccccc3[nH]2)CC1=O (stereo not shown)	-20.9
CN(C)c1ccc(NC(=O)c2cccc(N3C(=O)C4C5C=CC(C5)C4C3=O)c2)cc1 (stereo not shown)	15.7
O=C(COC(=O)/C=C/c1cccs1)Nc1cccc(S(=O)(=O)N2CCCC2)c1	9.42
Cc1ccc(C(=O)COC(=O)c2ccc(Cl)c(N)c2)s1	14.7
Cl.O=C(NCCCn1ccnc1)c1ccc(S(=O)(=O)N2CCOCC2)cc1	10.4
O=Cc1c[nH]c2ccc(OCc3ccccc3)cc12	14
COC(=O)C1=C(c2cc3ccccc3o2)C[C@@H]2CC[C@H]1N2C(=O)NCCNC(C)=O	11.2
Cc1ccc(S(=O)(=O)CC(=O)NC2CC2)cc1	6.09
O=C1OC(/C(=C\NCc2ccccc2)[N+](=O)[O-])c2ccccc21 (stereo not shown)	6.65
CCc1noc(C)c1C(=O)NC1CC(C)(C)Cc2c1cnn2-c1ccccc1 (stereo not shown)	8.54
Nc1ccc(C(=O)NC2CCSc3ccccc32)cc1[N+](=O)[O-] (stereo not shown)	-0.154
O=C(Cn1c(-c2cncs2)nc2ccccc21)NCc1ccccc1	16
C=CCNc1oc(-c2ccc(OCC)cc2)nc1C#N	-8.94
CCOc1ccc2[nH]c(=O)c(CN(Cc3ccco3)C(CC)c3nnnn3Cc3ccccc3)cc2c1 (stereo not shown)	-3.8
COCCNc1c(-c2ccc(O)cc2)nc2ccc(Cl)cn12	-0.888
